Test results taken from PubChem BioAssay AID1347165 (National Center for Advancing Translational Sciences (NCATS), 2019).
Values joined by “and” are separate entries in the source; they are usually repeats but may differ in a detail not shown here. Identical values can stand only once. Among all 220,000 compounds or so, about 5,700 (2.6%) were called active. Inconclusive results, whose numbers are uncertain, are shown with a selection of clear calls. Calls come from the whole dose curve; as a rule, active = well fitted inhibition curve with a large enough effect; inconclusive = small, poorly fitted or top-dose-only effect; inactive = no such curve, though single readings can be large or run the other way. Where the call is inconclusive, the potency comes from a doubtful curve fit.
Note: nearly all actives have a fitted effect of over 70% in size.
Potency is the fitted concentration of half-maximal effect; tags give direction and shape of the fitted curve.
Throughout, for activity change, negative = inhibition: 0% is about no effect.

The compounds below were run against Lysine-specific demethylase 5B (Homo sapiens) (UniProt Q9UGL1) (assay: Primary screen for KDM5B Histone Demethylases FDH-coupled qHTS). Details: FDH-coupled NADH fluorescence (FDH is formaldehyde dehydrogenase); activity change, negative = inhibition: at 57.7 µM (top of the series) unless noted.
Chain of UniProt Q9UGL1 (Q9UGL1 whole entry, looked up): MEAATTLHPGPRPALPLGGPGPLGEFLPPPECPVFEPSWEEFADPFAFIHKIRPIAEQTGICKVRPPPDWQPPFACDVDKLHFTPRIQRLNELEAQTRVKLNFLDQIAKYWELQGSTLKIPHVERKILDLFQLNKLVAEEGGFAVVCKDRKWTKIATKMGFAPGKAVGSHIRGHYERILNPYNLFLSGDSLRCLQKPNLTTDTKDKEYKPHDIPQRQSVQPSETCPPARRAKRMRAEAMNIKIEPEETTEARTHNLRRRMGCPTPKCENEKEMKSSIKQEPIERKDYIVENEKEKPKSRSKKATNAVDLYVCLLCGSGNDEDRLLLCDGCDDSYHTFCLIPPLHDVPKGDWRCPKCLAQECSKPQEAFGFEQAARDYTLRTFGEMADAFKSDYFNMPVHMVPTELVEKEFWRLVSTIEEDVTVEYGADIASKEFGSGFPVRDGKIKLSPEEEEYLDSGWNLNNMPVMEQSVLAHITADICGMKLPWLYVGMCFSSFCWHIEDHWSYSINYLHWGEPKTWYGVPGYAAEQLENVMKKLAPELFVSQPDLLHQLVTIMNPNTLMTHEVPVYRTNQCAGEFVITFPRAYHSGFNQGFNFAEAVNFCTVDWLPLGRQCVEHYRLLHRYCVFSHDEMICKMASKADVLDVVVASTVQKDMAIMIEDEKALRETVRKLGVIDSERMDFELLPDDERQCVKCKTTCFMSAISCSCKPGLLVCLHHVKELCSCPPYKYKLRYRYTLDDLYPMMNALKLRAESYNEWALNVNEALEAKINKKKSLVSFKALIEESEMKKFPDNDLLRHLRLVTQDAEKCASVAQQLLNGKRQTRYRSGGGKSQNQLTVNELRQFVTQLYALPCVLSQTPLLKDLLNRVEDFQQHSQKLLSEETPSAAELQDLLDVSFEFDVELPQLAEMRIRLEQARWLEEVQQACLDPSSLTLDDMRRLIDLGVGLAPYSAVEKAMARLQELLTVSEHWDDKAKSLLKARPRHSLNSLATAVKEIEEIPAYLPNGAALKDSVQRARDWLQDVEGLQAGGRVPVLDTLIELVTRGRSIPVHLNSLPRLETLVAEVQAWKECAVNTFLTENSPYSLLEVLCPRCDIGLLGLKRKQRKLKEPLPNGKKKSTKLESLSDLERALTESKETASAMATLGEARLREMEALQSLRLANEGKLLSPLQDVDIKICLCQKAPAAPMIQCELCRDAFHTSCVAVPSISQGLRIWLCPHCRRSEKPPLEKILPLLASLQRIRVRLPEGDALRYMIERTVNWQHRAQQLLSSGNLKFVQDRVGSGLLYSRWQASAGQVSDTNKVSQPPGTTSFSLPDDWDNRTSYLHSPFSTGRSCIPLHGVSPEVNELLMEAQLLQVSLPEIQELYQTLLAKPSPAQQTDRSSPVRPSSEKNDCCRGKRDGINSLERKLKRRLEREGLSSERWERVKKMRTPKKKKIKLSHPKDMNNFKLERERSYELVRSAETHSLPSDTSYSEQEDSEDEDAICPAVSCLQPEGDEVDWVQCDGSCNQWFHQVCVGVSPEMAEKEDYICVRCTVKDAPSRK
Outline: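 Measured: NADH fluorescence change, 30 min, RT. System: KDM5BΔAP 200 nM final, H3K4me3 peptide, α-KG, Fe(II), ascorbate, NAD⁺ plus FDH, pH 7.5 HEPES. Compounds: titrated, 10 min pre-incubation with enzyme.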
N#CC1(NC(=O)COc2cccc(C(F)(F)F)c2)CCCC1 was tested, and the Potency was “inactive”. In the case of CC(=O)Nc1ccc(NCC(=O)NCc2ccc(Cl)cc2)c(C(F)(F)F)c1, the Potency is reported as “inactive”. COc1ccc(-c2cn(C)c(=O)n3cc(COc4ccccc4)nc23)cn1 was tested, and the Potency was inconclusive: 31.6 µM [inhibitor, partial curve]. For COc1ccccc1-c1nn2c(CN3CCCCC3)nnc2s1, the Potency was inconclusive: 22.4 µM [inhibitor, partial curve, poor fit]. In the case of COc1cc(F)ccc1-c1ccnc2nc(C3CCC3)nn12, the Potency is reported as active: 28.2 µM. COc1ccc(C2C3=C(CCCC3=O)Nc3cc(OC)cc(OC)c32)cc1 (configuration not stated) was tested, and the Potency was inconclusive: 22.4 µM [inhibitor, partial curve, poor fit]. In the case of COc1ccc(CN2CCC([C@H]3[C@@H](OC)C(=O)N3C(C)C)CC2)cc1CN1CCCC1, the Potency is reported as inconclusive: 12.6 µM [inhibitor, partial curve]. CCn1nc(C(=O)Nc2cc(OC)c(OC)c(OC)c2)c2ccccc2c1=O was tested, and the Potency was “inactive”. O=C1NCc2ccccc2CC12CCN(CC1=CCCCC1)C2 (configuration not stated) was tested, and the Potency was inconclusive: 56.2 µM [inhibitor, partial curve, poor fit]. For CCCOc1ccc(-c2nc(C#N)c(N3CCN(C)CC3)o2)cc1, the Potency was inconclusive: 2 µM [inhibitor, full curve, poor fit]. For COc1cccc(NC(=O)Cn2c(=O)n(Cc3ccccc3)c(=O)c3ccccc32)c1, the Potency was inconclusive: 14.1 µM [inhibitor, partial curve, poor fit]. With CCc1nc2c(c(-c3ccc(OC)cc3)n1)CCN(Cc1ccnn1C)CC2 the Potency was inconclusive: 79.4 µM [inhibitor, partial curve]. With COc1cc(C(=O)Nc2cnc3ccccc3c2)ccc1C the Potency was inconclusive: 39.8 µM [inhibitor, single point]. COc1ccc(NC(=O)c2oc3ccccc3c2NC(=O)COc2ccc(C(C)C)cc2)c(OC)c1 was tested, and the Potency was inconclusive: 3.16 µM [inhibitor, partial curve, poor fit]. With COC(=O)C(=O)/C=C(\O)c1c(C)cc(C)cc1C the Potency was inconclusive: 20 µM [inhibitor, partial curve, poor fit]. COc1ccc(C2C3=C(CC(C)(C)CC3=O)Nc3nc(-c4cccc(O)c4)nn32)cc1 (configuration not stated) was tested, and the Potency was “inactive”. For CCOC(=O)c1oc2cc(OCC(=O)c3ccccc3)ccc2c(=O)c1-c1ccc2c(c1)OCCO2, the Potency was “inactive”. With CC(=O)C1=C(C)N(C2CCCCC2)C(=O)C1(NC(=O)C1CCCCC1)C(F)(F)F (configuration not stated) the Potency was “inactive”. In the case of O=C1COc2ccc(Oc3ccccc3)nc2CN1Cc1ccccc1, the Potency is reported as “inactive”. With O=C(NCc1cccnc1)c1nn(-c2ccc(F)cc2)nc1CO the Potency was inconclusive: 17.8 µM [inhibitor, partial curve, poor fit]. In the case of COc1ccc(-n2c(SCC(=O)N3CCc4ccccc43)nc3c(c2=O)SCC3)cc1, the Potency is reported as “inactive”. COc1ccc(CCNc2oc(-c3ccc(OC)cc3)nc2C#N)cc1 was tested, and the Potency was inconclusive: 25.1 µM [inhibitor, partial curve, poor fit]. For COc1ccccc1OC(C)C(=O)Nc1cccc(-c2nc3ccccc3o2)c1 (configuration not stated), the Potency was inconclusive: 28.2 µM [inhibitor, partial curve, poor fit] and inconclusive: 31.6 µM [inhibitor, single point]. With C1=C(c2cc(-c3cccc(N4CCOCC4)c3)cn3cncc23)CCOC1 the Potency was inconclusive: 44.7 µM [inhibitor, partial curve, poor fit]. In the case of C=CCn1cc2c3c(cccc31)[C@H](CC(C)C)N[C@H](C(=O)N1CCOCC1)C2, the Potency is reported as active: 31.6 µM. For CC(OC(=O)c1ccc(CCNS(C)(=O)=O)cc1)C(=O)N(C)C1CCCCC1 (configuration not stated), the Potency was “inactive”. For CCOC(=O)N1CCC(NC(=O)c2ccc(OC3CCN(C(=O)C4CC4)CC3)cc2)CC1, the Potency was “inactive”. In the case of COc1ccccc1-c1cn2c(n1)CO[C@@H](CNCc1cccnc1)C2, the Potency is reported as inconclusive: 39.8 µM [inhibitor, partial curve, poor fit]. In the case of CN(C)CCCN(Cc1ccc(Cl)cc1Cl)Cc1ccc(Cl)cc1Cl, the Potency is reported as inconclusive: 17.8 µM [inhibitor, partial curve, poor fit]. In the case of CC(=O)Nc1ccc(NC(=O)CC2C(=O)NCCN2C(=O)CN2CCN(c3ncccn3)CC2)cc1 (configuration not stated), the Potency is reported as “inactive”. With COC1CCOC2(CCNCC2)C1 (configuration not stated) the Potency was “inactive”. CCC(C(=O)Nc1ccc(C(C)=O)cc1)n1c(=O)c(-c2ccccc2NC(C)=O)nc2ccccc21 (configuration not stated) was tested, and the Potency was “inactive”. With O=C(c1ccc(=O)[nH]c1)N1CCC(C(=O)N2CCc3c(nc4cc(-c5ccccc5)[nH]n4c3=O)C2)CC1 the Potency was inconclusive: 31.6 µM [inhibitor, partial curve, poor fit]. With O=C(Cn1c(=O)oc2cc(S(=O)(=O)N3CCOCC3)ccc21)c1ccc(F)cc1 the Potency was “inactive”. For CN1CCN(CCCNc2nccc(-c3ccccn3)n2)CC1, the Potency was active: 28.2 µM. With Cc1cccc(NC2=C(C(N)=O)S(=O)(=O)c3ccccc32)c1 the Potency was inconclusive: 39.8 µM [inhibitor, single point]. COc1cccc(CNC(=O)c2ccc(-n3c(C)cc4c3CCC(C)C4)cc2)c1 (configuration not stated) was tested, and the Potency was inconclusive: 10 µM [inhibitor, partial curve, poor fit]. For Cc1ccc(CN(C)C(C)C(=O)NCc2cccs2)cc1 (configuration not stated), the Potency was “inactive”. With CCOc1cc(=O)n2c(c1C(=O)NC1CCc3ccccc31)CCCCC2 (configuration not stated) the Potency was “inactive”. Cc1oc(-c2nc(C#N)c(N(C)C)o2)cc1S(=O)(=O)N(C)Cc1ccccc1 was tested, and the Potency was inconclusive: 20 µM [inhibitor, partial curve, poor fit]. For Cc1ccc2nc3c(cc(C#N)c(=O)n3-c3nnc(SCc4ccccc4)s3)c(=O)n2c1, the Potency was inconclusive: 25.1 µM [inhibitor, partial curve, poor fit]. In the case of CCOc1ccc(NC(=O)c2ncoc2-c2ccco2)cc1, the Potency is reported as inconclusive: 2.51 µM [inhibitor, partial curve, poor fit]. With CC1(C)C(=O)N(Cc2ccccc2F)[C@H]2CN(Cc3cccc(OC(F)(F)F)c3)C[C@H]2[S+]1(=O)[O-] the Potency was “inactive”. CCCn1c2ccccc2c2cnn(CC(=O)N3CCN(c4ccccc4)CC3)c(=O)c21 was tested, and the Potency was inconclusive: 17.8 µM [inhibitor, partial curve, poor fit]. In the case of COc1cccc(C2c3c(n[nH]c3C)Nc3[nH]c(=O)[nH]c(=O)c32)c1O (configuration not stated), the Potency is reported as inconclusive: 25.1 µM [inhibitor, single point]. In the case of CCC(C(=O)N1CCC2(CCC(=O)N(Cc3ccccn3)C2)CC1)n1cccn1 (configuration not stated), the Potency is reported as inconclusive: 14.1 µM [inhibitor, partial curve, poor fit]. With COc1ccc2c(c1)CC/C(=C\c1ccc(Br)cc1)C2=O the Potency was “inactive”. For Cc1c(Br)c(C(F)(F)F)nn1C(C)C(=O)N1CCN2CCCC2C1 (configuration not stated), the Potency was “inactive”. O=C(CSc1nc2ccccc2nc1N1CCCC1)NCc1ccc(F)cc1 was tested, and the Potency was inconclusive: 15.8 µM [inhibitor, partial curve, poor fit]. With O=C(O)c1cnc(-c2ccc(F)cc2)nc1-c1ccncc1 the Potency was inconclusive: 10 µM [inhibitor, partial curve]. For CCCOc1cc(/C=C(/C#N)c2nc3ccccc3[nH]2)ccc1OC, the Potency was inconclusive: 39.8 µM [inhibitor, single point]. Cc1ccc(C)c(NC(=O)C(C)NS(=O)(=O)c2ccc3c(c2)CCN3C(=O)N2CCCC2)c1 (configuration not stated) was tested, and the Potency was “inactive”. With Cc1cc(Cl)ccc1NC(=O)Cn1cnc2c1c(=O)n(C)c(=O)n2C the Potency was “inactive”. With OCc1ccccc1SSc1ccccc1CO the Potency was inconclusive: 2 µM [inhibitor, full curve, poor fit]. For COc1ccccc1C(=O)N1CCn2c(nnc2C2CCNCC2)C1, the Potency was inconclusive: 39.8 µM [inhibitor, partial curve]. For CCOC(=O)c1[nH]c2ccccc2c1NC(=O)c1ccc(Br)cc1, the activity change, negative = inhibition was inconclusive: -54.8% [inhibitor]. With CCCc1cc(=O)oc2cc(C)cc(OC(C)C(=O)NCCCn3ccnc3)c12 (configuration not stated) the Potency was inconclusive: 25.1 µM [inhibitor, partial curve, poor fit]. With c1ccc2c(NC34CC5CC(CC(C5)C3)C4)nc(N3CCCCC3)nc2c1 the Potency was “inactive”. For Cc1ccc(C)c(S(=O)(=O)NCCc2coc(-c3ccccc3)n2)c1, the Potency was “inactive”. For Cc1cccc(C)c1NC(=O)Cn1nc(-c2cccs2)ccc1=O, the Potency was inconclusive: 25.1 µM [inhibitor, single point]. For COc1ncccc1-c1ccc2ncn(Cc3ccccn3)c(=O)c2n1, the Potency was active: 35.5 µM. O=C(Nc1ccccc1C(F)(F)F)n1ncc2cc(Cl)ccc21 was tested, and the Potency was “inactive”. CN1C[C@H]2CN(Cc3ccc(C(=O)O)cc3)CCN2C1=O was tested, and the Potency was inconclusive: 35.5 µM [inhibitor, partial curve, poor fit]. In the case of O=c1[nH]c2ccc(NCc3ccc(-c4ccc(Br)cc4)o3)cc2[nH]1, the Potency is reported as inconclusive: 11.2 µM [inhibitor, partial curve, poor fit]. With COC(=O)COc1ccc2c(c1)O/C(=C\C1=Cc3ccccc3OC1C)C2=O (configuration not stated) the Potency was inconclusive: 17.8 µM [inhibitor, partial curve, poor fit]. For CCOC(=O)c1c(NC(=O)c2nc(S(C)(=O)=O)ncc2Cl)sc(C(C)=O)c1C, the Potency was inconclusive: 25.1 µM [inhibitor, partial curve, poor fit]. With COc1ccc2cc(C(=O)NCCC(=O)N(C)C)c(C)nc2c1 the Potency was inconclusive: 20 µM [inhibitor, partial curve, poor fit].
